Results: PubChem BioAssay AID1240 (Sanford-Burnham Center for Chemical Genomics, 2008)
Screen size: about 50,000 compounds; about 800 (1.6%) showed an effect of 50% or more. The list shows a part of the results.

Target: Bcl-2-like protein 10 (Homo sapiens) (UniProt Q9HD36)
Test: TR3 peptide-Bcl-B binding displacers, biochemical primary FP assay, phenotype converters (AID 1240);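 also: 0% = Bcl-B with tracer peptide and DMSO and 100% = tracer peptide lacking Bcl-B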
Settings: GST-Bcl-B / FITC-TR3 peptide fluorescence polarization; stronger effect = higher value; compound at 3.75 mg/L

UniProt Q9HD36, sequence (Q9HD36 whole entry, looked up): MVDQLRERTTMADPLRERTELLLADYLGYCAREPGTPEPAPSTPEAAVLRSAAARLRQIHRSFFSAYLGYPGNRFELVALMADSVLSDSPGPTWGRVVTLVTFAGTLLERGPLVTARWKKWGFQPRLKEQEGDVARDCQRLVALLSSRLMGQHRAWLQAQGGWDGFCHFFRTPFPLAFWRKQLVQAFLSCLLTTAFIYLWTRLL

Row | Compound | displacement
1 | CCCC(=O)Nc1cccc(NC(=O)COc2ccccc2C)c1 | -1.8%
2 | Cc1nn(-c2ccccc2)c(C)c1Sc1ccc(Cl)cc1 | 3.2%
3 | O=C(NNc1c(Cl)cc(Cl)cc1Cl)c1cccs1 | -3.6%
4 | COc1ccccc1OCC(=O)NNC(=O)c1cccnc1 | -6.4%
5 | COc1ccc(CC(=O)Nc2sc3c(c2C(=O)Nc2ccccc2OC)CCC3)cc1 | -9.7%
6 | O=C(Nc1ccc(S(=O)(=O)Nc2ncccn2)cc1)c1cccnc1 | 4.9%
7 | O=C1C(Cl)=C(Nc2ccc(O)cc2)c2c(Cl)c(Cl)c(Cl)c(Cl)c21 | 6.9%
8 | COc1ccc(N2CC(C(=O)N/N=C/c3c(Cl)cccc3Cl)CC2=O)cc1 (stereo unspecified) | 0.2%
9 | CCC(=O)O/C(C#N)=N\Nc1nc2c([nH]1)c(=O)n(C)c(=O)n2C | -66%
10 | CS(=O)(=O)N1CCN(CCCc2ccccc2)CC1 | 9.6%
11 | CCCCOc1cccc(C(=O)Nc2ccc(-c3nc4ccccc4s3)c(O)c2)c1 | 1.7%
12 | CC(C)NC(=O)c1cnn(-c2ccccc2)c1NC(=O)c1ccccc1 | -3.6%
13 | Cc1c(Cl)cccc1NC(=O)C(=O)NCCO | 7.2%
14 | Brc1ccc(-c2nc(-c3ccccc3)no2)cc1 | -5.1%
15 | CCOC(=O)c1ccccc1NC(=O)CN(c1ccc(C)cc1)S(=O)(=O)c1ccc(F)cc1 | 10.2%
16 | CCC1CCc2c(sc(NC(=O)Nc3ccccc3)c2C(N)=O)C1 (stereo unspecified) | -3.3%
17 | O=C(Nc1ccccc1F)c1ccccc1 | 16.5%
18 | C=CCN1C(=O)/C(=C\c2ccc3c(c2)OCO3)C(=O)NC1=S | 4.4%
19 | Cc1cccc(/C(N)=N/OC(=O)CCc2ccccc2)c1 | 9.2%
20 | O=C(Nc1ccccc1CO)c1ccccc1F | 2.6%
21 | CC1=C(C(=O)Nc2ccccc2)C(c2cccc(I)c2)NC(=S)N1 (stereo unspecified) | -2.1%
22 | O=C1C(=O)N(c2nc3ccccc3s2)C(c2ccc3c(c2)OCO3)/C1=C(/O)c1ccccc1 (stereo unspecified) | 12.7%
23 | Cc1ccc(NC(=S)NC(=O)c2ccc(Cl)cc2)cc1C | 2.5%

Row | Compound | displacement
24 | O=C(/C=C/c1ccccc1[N+](=O)[O-])c1ccc(F)cc1 | -0.7%
25 | O=C(CCC(NC(=O)OCc1ccccc1)C(=O)OCc1ccccc1)Nc1ccccc1 (stereo unspecified) | 6.3%
26 | C=CCNC(=S)Nc1sc(C)c(C)c1C(=O)OCC | 14.9%
27 | CCc1c(C#N)c(N)nc(SCC(=O)c2ccc(Cl)c(Cl)c2)c1C#N | 1.7%
28 | Cc1ccc(N2C(=O)/C(=C/c3ccccc3)SC2=S)cc1C | 15.2%
29 | O=C(O)c1cc2n(n1)C(C(F)(F)F)CC(c1cccs1)N2 (stereo unspecified) | -1.1%
30 | COc1ccc(C)cc1NC(=O)C(=O)NCCc1ccc(OC)c(OC)c1 | 9.6%
31 | CCOc1cc(C=C2C(=O)N(C)C(=O)N(C)C2=O)ccc1OCCOc1ccc([N+](=O)[O-])cc1 | 38%
32 | CN(C)c1ccc(C(=S)N2CCN(c3cccc(Cl)c3)CC2)cc1 | 11%
33 | CCCN1C(=O)c2ccccc2NC1c1ccc(O)c(OC)c1 (stereo unspecified) | -0.9%
34 | CN1C(=O)/C(=C2\SC(=S)N(C3CCS(=O)(=O)C3)C2=O)c2ccccc21 (stereo unspecified) | 9.3%
35 | Fc1cccc(Cl)c1Cc1noc(/C=C/c2ccccc2)n1 | 11.6%
36 | NC(=O)c1ccc(N=Cc2ccccc2OCc2ccccc2)cc1 | -8.4%
37 | O=C(Nc1ccc(F)c([N+](=O)[O-])c1)c1cc(I)ccc1Cl | 7.4%
38 | O=C(COc1ccc(Cl)cc1Br)NNC(=O)C(=O)N1CCCCC1 | -17%
39 | CC(C)CC(=O)NS(=O)(=O)c1ccc(N)cc1 | -6.8%
40 | CC(=O)Nc1ccc(Cl)c(-c2nc3ccccc3s2)c1 | -4.7%
41 | CCN1C(=O)/C(=C\c2cccc(OCc3ccc(Cl)cc3Cl)c2)SC1=S | -0.7%
42 | O=C1/C(=C/c2cccs2)SC(=S)N1CCC(=O)N1c2ccccc2Sc2ccc(Cl)cc21 | 6.3%
43 | COc1ccc(C)cc1NC(=O)C(=O)NCc1ccncc1 | -15.6%
44 | O=C(N/N=C/c1c[nH]c2ccc(Br)cc12)C(O)c1ccccc1 (stereo unspecified) | -10.9%
45 | CCC1=NN2C(=N)/C(=C/c3ccc(-c4ccccc4C(=O)OC)o3)C(=O)N=C2S1 | 3.5%
46 | CC(C)CN1C(=O)c2ccc(C(=O)Nc3c[nH]c(=O)[nH]c3=O)cc2C1=O | 7.8%

Row | Compound | displacement
47 | CCOC(=O)c1ccccc1NC(=O)c1cc(Cl)ccc1[N+](=O)[O-] | 10.1%
48 | COc1ccc([N+](=O)[O-])cc1NC(=O)Cc1ccc(Cl)cc1 | 8.7%
49 | COc1ccc2oc(=O)c(C(=O)Nc3ccccc3F)cc2c1 | 16.3%
50 | COc1ccc(C2=C/C(=C/c3cccc(OC)c3OC(C)=O)C(=O)O2)cc1 | -10.8%
51 | NS(=O)(=O)c1ccc(Nc2nc(-c3ccncc3)cs2)cc1 | 5.5%
52 | CC(C)C(=O)NNC1=CC(=O)CC(C)(C)C1 | 10%
53 | O=C1/C(=C\Nc2ccc3c(c2)OCO3)CCc2ccccc21 | 48.1%
54 | C/C(=N\N=C1\NC(=O)C(CC(=O)Nc2ccc(Cl)c(Cl)c2)S1)c1ccco1 (stereo unspecified) | -5.1%
55 | O=C(CSCC(=O)N1CCOCC1)Nc1ccccc1 | -8.9%
56 | CCOC(=O)C(=O)C1CCc2c([nH]c3ccc(C)cc23)C1=O (stereo unspecified) | 0.2%
57 | O=C(Nc1ccccc1Oc1ccccc1)c1cc2cc([N+](=O)[O-])ccc2oc1=O | 8.5%
58 | CC1=NNC(=O)C1CCC(=O)N/N=C/c1c(O)ccc2ccccc12 (stereo unspecified) | -20.1%
59 | COc1cccc(C2C(C#N)=C(N)SC(N)=C2C#N)c1 | -45.6%
60 | O=C1CC(N2CCN(c3ccc(Cl)cc3)CC2)C(=O)N1c1ccc(F)cc1 (stereo unspecified) | -5.3%
61 | COc1ccc(-n2c(=S)[nH]c3sc4c(c3c2=O)CCN(Cc2ccccc2)C4)cc1 | -2.5%
62 | CSc1nsc(SC)c1NC(=O)OCC1([N+](=O)[O-])COC(C)(C)OC1 | 21.2%
63 | Cc1ccc(C(=O)CCNc2ccc(C)c(Cl)c2)o1 | 13.1%
64 | CCOc1ccc(C(=O)Nc2cccc3nsnc23)cc1Br | 78.2%
65 | Cc1csc(NC(=O)C2CCCCC2C(=O)O)n1 (stereo unspecified) | -4%
66 | Cc1cc(C)nc(NC(=O)Nc2ccc(Cl)cc2)c1 | 0.3%
67 | Cc1ccc(NC2=NC3(CCCCC3)N=C(N)N2)c(C)c1 | -2.8%
68 | COc1ccc(CC(=O)Nc2ccc(S(=O)(=O)N3CCCCCC3)cc2)cc1 | -10.4%
69 | O=C(N1CCCC1)C12CC3CC(CC(C3)C1)C2 | 17.7%

Row | Compound | displacement
70 | Brc1ccc(OCCCCCN2CCCC2)cc1 | 9.5%
71 | O=C1NN(c2ccc(Br)cc2)C(=O)/C1=C\c1ccc(O)cc1O | 16.3%
72 | COc1ccc(C(=O)Nc2ccc(-c3nc4ccccc4o3)c(O)c2)cc1[N+](=O)[O-] | -5.7%
73 | C=CCn1c(SCC(=O)N2CCCCC2)nc2sc3c(c2c1=O)CCCC3 | 8.1%
74 | CCOc1cc(/C=N/n2cnnc2)ccc1OCCOc1cccc(C)c1 | -7%
75 | CN1CCN(/N=C/C(Br)=C\c2ccccc2)CC1 | 3.4%
76 | O=C(c1ccc(F)cc1)N(Cc1ccccc1)c1ccccn1 | 2.1%
77 | COCCOC(=O)c1ccc(NC(=O)COc2ccccc2C)cc1 | 6.2%
78 | CCCCS(=O)(=O)CC(O)COc1ccccc1 (stereo unspecified) | 7.7%
79 | COc1ccc(C2NC(=S)NC(C)=C2C(=O)Nc2ccccc2)c(OC)c1 (stereo unspecified) | -15.1%
80 | COc1ccc(C)cc1NC(=O)c1c(Cl)cccc1Cl | 2.3%
81 | Cc1cccc(N2C(=O)NC(=O)/C(=C\c3cc(C)n(-c4cccnc4)c3C)C2=O)c1 | 9%
82 | CCCCOC(=O)c1ccc(NC(=O)COc2ccc3c(C)cc(=O)oc3c2)cc1 | 28.5%
83 | COc1cc(C(=O)Nc2ccc(-c3nc4ccccc4[nH]3)cc2)cc(OC)c1OC | 10%
84 | CCc1ccccc1NC(=O)CN(c1ccc(OC)cc1)S(=O)(=O)c1ccc(C)cc1 | 5%
85 | C=CCn1c(NC(=O)c2ccc(Cl)cc2)nc2ccccc21 | 10.5%
86 | O=C(Nc1nnc(-c2ccco2)s1)c1ccco1 | 34.9%
87 | C=CCc1cc(/C=C2\C(=O)NC(=O)N(c3ccc(Cl)cc3)C2=O)cc(OC)c1OCC(=O)O | -0.6%
88 | CC1CCC(CC(=O)OCc2ccccc2)C1(C)C (stereo unspecified) | -6%
89 | COc1ccc(C2CC(c3ccc([N+](=O)[O-])cc3)=NN2)cc1 (stereo unspecified) | 6.1%
90 | C=CCn1c(C)c(C(C)=O)c(N2CCCC2)nc1=S | 2.1%
91 | O=[N+]([O-])c1ccc(S(=O)(=O)N(CCO)CCO)cc1 | -7.3%
92 | CCOC(=O)C1=C(O)/C(=C/c2cccnc2)SC1=Nc1ccc([N+](=O)[O-])cc1 | 55.2%

Row | Compound | displacement
93 | COc1ccc(C(=O)c2ccc(OC)c3cccc(O)c23)cc1OC | -3.7%
94 | S=C(NCCOCCOCCNC(=S)Nc1ccccc1)Nc1ccccc1 | 11.3%
95 | COc1cc(/C=C2/C=C(c3ccccc3)OC2=O)ccc1C | -4.5%
96 | CC1=Nc2cc([N+](=O)[O-])ccc2NC(=O)C1 | 2.1%
97 | CC(C(=O)NCc1ccncc1)N1C(=O)c2ccccc2C1=O (stereo unspecified) | -2.3%
98 | Cc1cc(C)cc(CSCC(=O)Nc2cc(Cl)ccc2Cl)c1 | -7.2%
99 | CCOc1ccccc1N1CCN(C(=O)CCc2ccccc2)CC1 | -4.4%
100 | O=C1N/C(=N/N=C/c2cccs2)SC1Cc1ccc(F)cc1 (stereo unspecified) | -13.9%
101 | Cc1cc(C)nc(SCc2ccc(Cl)cc2)n1 | -5.9%
102 | Cc1sc(NC(=O)Nc2ccccc2)nc1-c1ccccc1 | -8%
103 | O=C(NCc1ccco1)/C(=C/c1cccc2ccccc12)NC(=O)c1ccccc1 | -6%
104 | CC(C)c1ccc([N+](=O)[O-])cc1S(=O)(=O)N1CCN(c2ccccc2)CC1 | -4.7%
105 | COc1cc(NC(=O)COc2ccc(-c3ccc(C)cc3)cc2)c(OC)cc1Cl | -3.8%
106 | CC(C)(C)c1ccc(OCC(=O)Nc2ccccc2C(=O)Nc2ccc(C(=O)O)cc2)cc1 | 11%
107 | CCN(CC)c1ccc(NC(=O)c2ccc(-c3ccc([N+](=O)[O-])cc3)o2)cc1 | -1.5%
108 | COc1ccc(CNc2ccc(C)c(C)c2)c(OC)c1C | 11.8%
109 | O=C1CC(Sc2ccc3ccccc3c2)C(=O)N1c1ccccc1 (stereo unspecified) | -2.2%
110 | CC(C)c1ccc(N2C(=O)NC(=O)/C(=C/c3ccc(O)cc3)C2=O)cc1 | -14%
111 | COc1ccc(C2=NN(C(=O)CCC(=O)O)C(c3ccc(Br)cc3)C2)cc1 (stereo unspecified) | 4.5%
